From PubChem BioAssay AID445 (National Center for Advancing Translational Sciences (NCATS), 2006)
Screen size: about 110,000 compounds; about 40 (0.04%) were called active. This list was built around the results that the source calls inconclusive (neither active nor inactive); the mix of calls is not that of the screen. Calls follow the shape of the dose curve; as a rule, active = well fitted curve in the direction sought with a large enough effect in the signal ratio (not every such curve was filed as active); inconclusive = small, poorly fitted or top-dose-only effect, or a change in a side signal; inactive = flat fitted curve, though single readings scatter; the % refers to the signal ratio. Potencies of inconclusive entries are doubtful fits and often do not repeat.

experiment: IkB Signaling; conditions: ABC-DLBCL IkBa-CBG/CBR dual luciferase ratio (green luciferase fused to IkBa over red control in OCI-Ly3 lymphoma cells), 4 h; IkBa stabilization activation: at 57.1 µM (top of the series), scaled: untreated 0%, proteasome inhibitor 100% unless noted;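 as to IkBa stabilization activation: 0% = basal untreated cells and 100% = reference inhibitor full response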
In short: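 Curves were fitted separately to fusion (green), unfused (red) and ratio luminescence, then classed by r2, magnitude and activity. Cells: OCI-Ly3, 4 h compound plus doxycycline at 37C; 10 uM MG-132 defined full response.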
Potency is read from the fitted curve at half-maximal effect.

| Compound | IkBa stabilization activation | Potency |
| --- | --- | --- |
| CC(=NCCCn1ccnc1)C1=C(O)c2ccccc2C1=O | inactive: 0.534% | – |
| CCCCC(CC)CNC(=O)c1ccc2c(c1)OCO2 (stereo unspecified) | inconclusive: 4.48% [signal inhibitor] | – |
| N#Cc1cccc(-c2nccc(NCc3cccnc3)n2)c1 | inactive: 0.283% [at 11.4 µM, scaled: untreated 0%, proteasome inhibitor 100%] | – |
| O=C(c1ccncc1)N1CCC[C@@]2(CCN(c3cccc(-c4ccccc4)c3)C2)C1 | – | inconclusive: 3.16 µM [signal inhibitor, partial curve] |
| O=c1[nH]c2ccccc2n1CCCOc1ccccc1 | inactive: 8.91% | – |
| CCc1ccc2nc(N(Cc3cccnc3)C(=O)c3cccs3)sc2c1 | inactive: 32.7% | – |
| COc1ccc(NC(=O)CN(c2cccc(C)c2C)S(=O)(=O)c2ccccc2)cc1OC | inconclusive: 7.44% [signal inhibitor] | – |
| CC(=O)c1cccc(NC(=O)c2noc3c2CC(C)CC3)c1 (stereo unspecified) | inactive: -1.64% | – |
| Cc1cc2c(cc1C)C(c1cccc(OC(C)C)c1)CC(=O)N2 (stereo unspecified) | inconclusive: 7.04% [signal inhibitor] | – |
| CCc1ccc(S(=O)(=O)NCCc2csc(-c3ccccc3)n2)s1 | inconclusive: 2.4% [signal inhibitor] | – |
| COc1ccc(OC)c(Nc2c3c(nc4ccccc24)CCC3)c1 | inactive: -1.36% | – |
| CCCN(Cc1cccs1)C(=O)Nc1ccc(F)c(Cl)c1 | inconclusive: -0.742% [signal inhibitor] | – |
| CCc1ccc(NC(=O)c2ccc(F)c(S(=O)(=O)NCCc3ccc(OC)c(OC)c3)c2)cc1 | inconclusive: 4.8% [signal inhibitor] | – |
| COc1cccc(Nc2sc(C(=O)c3ccc(Cl)cc3)c(N)c2C(=O)NCCc2ccc(OC)c(OC)c2)c1 | inconclusive: 2.22% [signal inhibitor] | – |
| CC(=O)c1ccc2c(c1)N(CCCN1CCC(CCO)CC1)c1ccccc1S2 | inactive: -2.48% [at 25.6 µM, scaled: untreated 0%, proteasome inhibitor 100%] | – |
| CCCSc1nnc2n(-c3cccc(C)c3)c(=O)c3c4c(sc3n12)CCCC4 | inconclusive: -10.8% [signal inhibitor] | – |
| COc1cc(OC)c(CN2CCN(c3ccc(F)cc3)CC2)cc1Br | inconclusive: 7.25% [signal inhibitor] | – |
| Cn1c(Oc2ccccc2)nc2c1c(=O)n(Cc1ccc(Cl)cc1Cl)c(=O)n2C | inconclusive: 17.1% [signal inhibitor] | – |
| C=C(C)Cn1c(-c2ccccc2)nc2ccccc21 | inactive: 0.781% | – |
| CC(C)CCNc1ncnc2c1cnn2-c1cccc(Cl)c1 | inconclusive: -0.0943% [signal inhibitor] | – |
| Cc1ccccc1C(c1c(C)n(C)n(-c2ccccc2)c1=O)c1c(C)n(C)n(-c2ccccc2)c1=O | inconclusive: 3.69% [signal inhibitor] | – |
